# Source: the supplement of paper PMC10600219
# Structures can show the parent of a compound that is named as a salt. Whole data set: some 2,800 compounds, median “cell viability relative to vehicle” near 0.98, cut for the lowest 2% near 0.45. This is one part of the list.
# Tested on: NCI-H2228 alectinib-DTP
# Assay: cell viability relative to vehicle (fraction of vehicle); NCI-H2228 is an ALK-positive lung cancer line and DTP means drug-tolerant persister; higher = less growth inhibition
# Conditions: 100 nM; treatment time 6 days
# Procedure, shortened: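 Parental NCI-H2228 cells and drug-tolerant persister cells (made with 1000 nM of a targeted drug for 13 days) were seeded in 384-well plates. The next day, the 3114-agent TargetMol anti-cancer compound library was added at 100 nM, with DMSO as vehicle. After 6 days, ATP was read with the CellTiter-Glo 3D Cell Viability Assay. Each value is cell viability relative to vehicle-treated cells.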
row,Structure (SMILES),cell viability
1,Cn1c(COP(=O)(NCCBr)NCCBr)cnc1[N+](=O)[O-] [Evofosfamide],1.07
2,C[C@@H]1CC[C@]2(NC1)O[C@H]1C[C@H]3[C@@H]4CC=C5C[C@@H](O)CC[C@]5(C)[C@H]4CC[C@]3(C)[C@H]1[C@@H]2C [Solasodine],0.97
3,CN1CCC(C(=O)c2cccc(NC(=O)c3c(F)cc(F)cc3F)n2)CC1 [Lasmiditan],0.914
4,Cc1sc2c(c1C)C(c1ccc(Cl)cc1)=N[C@@H](CC(=O)OC(C)(C)C)c1nnc(C)n1-2,0.83
5,Cc1c(N[C@@H](c2nnc(-c3ccc(C#N)cc3)o2)[C@H](C)O)ccc(C#N)c1Cl [Testolone],1.21
6,C[N+]1(C)CCCC(OC(=O)C(O)(c2ccccc2)c2ccccc2)C1 (centres undefined) [Mepenzolate Bromide],0.886
7,COc1cc(OC)c(OC)cc1C=O [Asarylaldehyde],1.18
8,OC(c1ccccc1)(c1ccccc1)C1CCNCC1 [Ataractan],1.04
9,C/C(O)=C(\C#N)C(=O)Nc1cc(Br)ccc1Br,0.99
10,OC1C[C@H]2CC[C@@H](C1)N2 (some centres undefined) [Nortropine],0.974
11,COc1cc([C@@H]2c3cc4c(cc3[C@@H](O)[C@H]3COC(=O)[C@H]23)OCO4)cc(OC)c1O [4'-Demethylepipodophyllotoxin],0.904
12,Cc1ccccc1-n1c(Cn2ncc3c(N)ncnc32)nc2cccc(C)c2c1=O,0.957
13,CCC1(C)CC(=O)NC(=O)C1 [Bemegrid],0.835
14,CN(C)C(=O)Oc1ccc[n+](C)c1 [Mestinon],1.05
15,CC1=C2C[C@H]3[C@@H](CC=C4C[C@@H](O)CC[C@@]43C)[C@@H]2CC[C@]12O[C@@H]1C[C@H](C)CN[C@H]1[C@H]2C [Cyclopamine],0.999
16,CC(C)NCC(O)c1ccccc1Cl (centres undefined) [Clorprenaline hydrochloride],0.96
17,O=c1[nH]c2ccccc2n1C1CCN(CCCC(c2ccc(F)cc2)c2ccc(F)cc2)CC1 [Pimozide],0.913
18,C[C@@H]1C(=O)O[C@H]2[C@H](O)[C@@]34O[C@@H]5OC(=O)[C@H](O)[C@@]56[C@H](C(C)(C)C)[C@H](O)C(OC3=O)[C@]64[C@@]12O (some centres undefined) [Ginkgolide C],0.969
19,CN[C@@H](Cc1c[nH]c2ccccc12)C(=O)O [Abrine],1.07
20,CCCCCCCCC(=O)NCc1ccc(O)c(OC)c1 [Nonivamide],0.973

row,Structure (SMILES),cell viability
1,c1ccc2c(c1)[nH]c1cnccc12 [Norharmane],0.986
2,N#CC(C#N)=Cc1ccc([N+](=O)[O-])c(O)c1,1.05
3,NCCCNCCSP(=O)(O)O [Amifostine],0.91
4,COC1=C[C@]23CCCN2CCc2cc4c(cc2[C@@H]3[C@@H]1O)OCO4 [Cephalotaxine],0.873
5,C[C@]12CCC(=O)C(O)=C1CC[C@@H]1[C@@H]2CC[C@]2(C)C(=O)CC[C@@H]12 [Formestane],1.08
6,CNCC(O)c1ccc(O)cc1 (centres undefined) [Synephrine HCl],1.17
7,CNCC(O)c1ccc(O)cc1 (centres undefined) [Synephrine],0.917
8,CCC1=C[C@H]2CN3CCc4c([nH]c5ccccc45)[C@](C(=O)OC)(C2)[C@H]13 [Catharanthine],1.18
9,CN1[C@@H]2CC[C@H]1C[C@@H](OC(=O)C(CO)c1ccccc1)C2 (some centres undefined) [Atropine],1.27
10,CCOc1ccccc1-n1c(C(C)N2CCN(C(=O)COc3ccc(Cl)cc3)CC2)nc2ccccc2c1=O (centres undefined) [Erastin],1.07
11,COc1ccc2[nH]cc(C3=CCNCC3)c2c1,0.966
12,Cc1sc2c(c1C)C(c1ccc(Cl)cc1)=N[C@@H](CC(=O)Nc1ccc(O)cc1)c1nnc(C)n1-2 [Birabresib],0.907
13,COc1ccc(C(CN(C)C)C2(O)CCCCC2)cc1 (centres undefined) [Venlafaxine hydrochloride],0.995
14,CCN(CC)CCOC(=O)C(O)(c1ccccc1)c1ccccc1 [Benactyzine hydrochloride],0.883
15,CNC(=O)Oc1ccc2c(c1)[C@]1(C)CCN(C)[C@@H]1N2C [Physostigmine Salicylate],1.07
16,Nc1ncnc2c1ccn2[C@@H]1O[C@H](CO)[C@@H](O)[C@H]1O [Tubercidin],0.389
17,CN(C)C(=O)Oc1cccc([N+](C)(C)C)c1 [Neostigmine bromide],0.769
18,CN(C)C(=O)Oc1cccc([N+](C)(C)C)c1 [Hodostin],0.784
19,CN1[C@H]2C[C@H](OC(=O)[C@H](CO)c3ccccc3)C[C@@H]1[C@@H](O)C2 [Anisodamine],0.945
